In all, about 48,000 compounds went through this assay and about 1,200 (2.5%) were called active. About 2% were inconclusive and are not listed.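 Rule for the calls: active = activation of at least 60% and not above a set upper limit (about 1 call in 100 departs from these limits); inconclusive = activation of 40% to 60%, or above that upper limit; inactive = activation under 40%.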 Some of the results follow.
target: Probable G-protein coupled receptor 32 (Homo sapiens) (UniProt O75388); assay: qHTS for Agonists of Human Resolvin D1 Receptor DRV1; conditions: CHO-K1 GPR32 beta-arrestin PathHunter luminescence, 90 min; at 76.9 µM; active compounds read high; zero percent set by DMSO-only wells; note: 0% is about no effect
In short: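 Readings come from a cell-based beta-arrestin complementation format: CHO-K1 GPR32 stable cells (2,500/well) treated 90 min with compounds, then beta-Gal substrate added for 1 h before chemiluminescence imaging.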

Chain of UniProt O75388 (O75388 whole entry, looked up): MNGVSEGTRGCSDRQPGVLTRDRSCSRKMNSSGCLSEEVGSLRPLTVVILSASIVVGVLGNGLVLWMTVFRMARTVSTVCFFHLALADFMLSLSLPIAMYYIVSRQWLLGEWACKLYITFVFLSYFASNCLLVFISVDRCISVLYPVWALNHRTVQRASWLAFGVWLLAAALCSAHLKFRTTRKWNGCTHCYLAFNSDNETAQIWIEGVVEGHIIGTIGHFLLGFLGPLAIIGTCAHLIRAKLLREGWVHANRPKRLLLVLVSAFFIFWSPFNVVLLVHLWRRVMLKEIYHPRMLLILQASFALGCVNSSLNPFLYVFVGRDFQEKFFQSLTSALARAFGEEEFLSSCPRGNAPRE

activation, inactive:
Cc1ccc(NC(=O)CN2C(=O)C(c3ccc(F)cc3)=NC23CCCCC3)c(C)c1 -24.2%
O=C(CCCCCn1c(=O)[nH]c2ccccc2c1=O)NCc1cccc(Cl)c1 -17.7%
CCc1ccccc1NC(=O)C(CC)Sc1ncnc2c1sc1ccccc12 (centres undefined) -21.3%
Cc1ccc(C(=O)c2cn(Cc3ccccc3C)c3nc(C)ccc3c2=O)cc1 -12.2%
Cc1ccccc1-c1cc2nccc(-c3cc(Cl)ccc3O)n2n1 -15.8%
Cc1ccc(NC(=O)Cn2c(=O)n(Cc3ccc4c(c3)OCO4)c(=O)c3ccccc32)cc1 -23.8%
COc1ccc(-c2cn3c(n2)sc2cc(C(=O)NCc4cccc(F)c4)ccc23)cc1 -1.18%
Cc1oc2c(cc(NS(=O)(=O)c3ccc(Cl)cc3)c3ccccc32)c1C(=O)OCc1ccccc1 19.1%
CCCc1noc(-c2ccc(NCc3ccc(C)cc3)c([N+](=O)[O-])c2)n1 -0.499%
CCCc1cnc2c(c1SCc1cccc(F)c1)c(=O)n(C)c(=O)n2C -14.4%
Cc1nc(C)c(CCNS(=O)(=O)c2ccc(F)cc2)s1 3.15%
Cc1ccc(NC(=O)CN2C(=O)COc3ccc(S(=O)(=O)NC4CCCC4)cc32)c(Cl)c1 -25.6%
CCc1ccc(Nc2nnc(-n3nc(C)cc3C)c3ccccc23)cc1 -12.5%
COc1ccc(CNC(=O)c2cnc3sc(N4CCCC4)nn3c2=O)c(OC)c1 -13%
COc1cc(C(O)CO)ccc1OS(=O)(=O)O (centres undefined) 13.7%
CCCCNC(=O)CSc1nc2cc3c(cc2c(=O)n1CCCCCC(=O)NCc1ccc(OC)cc1)OCO3 -8.63%
COc1ccc(CNC(=O)Cc2csc3nc(-c4ccc(F)cc4)cn23)cc1 2.84%
Cc1ccccc1C(=O)NCCc1sc(-c2ccc(Cl)cc2)nc1C 2.78%
Cc1ccccc1NC(=O)CCN1C(=O)c2ccccc2Sc2ncccc21 -8.12%
COc1cccc(NC(=O)CCc2c(C)nc3ncnn3c2C)c1 -1.01%
COc1ccc(N(Cc2cccs2)C(=O)Nc2cccc(Cl)c2)cc1 -34.6%
CCOC(=O)C1CCCN(S(=O)(=O)c2ccc3c(c2)oc(=O)n3C)C1 (centres undefined) -25.8%
COc1ccc(C2CC(=O)N(CC(=O)Nc3ccc(C)c(Cl)c3)c3ccccc3S2)cc1OC (centres undefined) -23.8%
CCOc1ccc(NC(=O)C(=O)NCC(c2cccnc2)N2CCc3ccccc32)cc1 (centres undefined) 22.4%
COc1ccc(-c2nc(SCC(=O)NC3CCCC3)c(-c3ccc(C)cc3)[nH]2)cc1OC -14.7%
COc1cc(OC)c(NC(=O)c2cn(C3CCCC3)c(=O)c3c2c2ccccc2n3C)cc1Cl 4.61%
Cc1cc(C)c(S(=O)(=O)Nc2ccc3oc4c(c3c2)C(=O)CC(C)(C)C4)cc1C -5.77%
COc1ccc(-c2cnc(C)o2)cc1S(=O)(=O)Nc1ccc(F)cc1F -4.73%
CN1CCN(C(=O)Cn2ncc3c4ccccc4n(Cc4ccc(F)cc4)c3c2=O)CC1 -12.8%
O=C(c1ccc(Br)cc1)N(Cc1cccs1)c1ccc(F)cc1 29.9%
CN(C)CCCNC(=O)C(=O)NCC(c1ccc2c(c1)OCO2)N1CCOCC1 (centres undefined) -6.76%
Cc1nc2nc(SCC(=O)Nc3ccccc3Cl)nn2c(C)c1Cc1ccccc1 -23.8%
COc1cc2c(cc1OC)C(COc1ccc(F)cc1)N(C(=O)c1cccc(F)c1)CC2 (centres undefined) -3.17%
CCOCCn1ccc2c(OCC(=O)Nc3cccc([N+](=O)[O-])c3)cccc2c1=O 2.78%
CCCOc1ccc(C2C(=O)N(C3CCCCCC3)CC(=O)N2CCC2=CCCCC2)cc1OC (centres undefined) -9.81%
Cc1cccn2c(=O)c(/C=C(\C#N)c3nc4ccccc4s3)c(Oc3ccc(F)cc3)nc12 -1.44%
Cc1cc(N(CCO)Cc2ccccc2)n2nc(-c3ccc(C(C)(C)C)cc3)nc2n1 3.24%
COc1cccc(C(=O)Nc2ccccc2OCc2cc(=O)n3ccccc3n2)c1 -10.5%
Cc1noc(/C=C/c2cccs2)c1S(=O)(=O)N1CCC(C(=O)NCc2ccc(Cl)cc2)CC1 -16.8%
COc1ccccc1CN1CCNC(=O)C1=O 7.98%
COc1ccc(N(Cc2nnc3n2CCCCC3)C(=O)Nc2cccc(C)c2)cc1Cl 4.43%
CCn1c(=N)n(CC(O)COc2ccccc2)c2ccccc21 (centres undefined) 8.75%
COc1ccccc1NC(=O)Cn1c(=O)n(-c2cccc(C)c2)c(=O)c2c1c1cc(C)ccc1n2C -14.3%
COc1ccc(NC(=O)C(CC(C)C)NC(=O)C2CCCCC2)cc1 (centres undefined) -7.72%
CCOc1ccc(CN2CCc3nc(N4CCN(c5ccccn5)CC4)ncc3C2)cc1OC -26.9%
O=C(Cn1ncc2c3ccccc3n(Cc3ccccc3)c2c1=O)NC1CCCCCC1 -2.44%
Cc1ccc(NC(=O)Cn2c(-c3nonc3N)nc3ccccc32)c(Br)c1 -15.8%
CCCCOc1ccc(C2C(=O)N(C3CCCCC3)CC(=O)N2CCCC)cc1 (centres undefined) -2.95%
Cc1cc(C)cc(C(=O)N2CC(=O)Nc3ccc(Br)cc3C2c2ccccc2)c1 (centres undefined) -3.6%
CCCCN(CC)CCCNC(=O)c1ccc2c(c1)NC(=O)CN2C -16.3%
Cc1ccc(-n2ncc(C(=O)NCCCN3CCc4ccccc4C3)c2C2CCN(C(=O)OC(C)(C)C)CC2)c(C)c1 -31.9%
CCOC(=O)c1noc2ncn(CC(=O)Nc3ccccc3OC)c(=O)c12 -4%
COc1cccc(CNC(=O)CCc2c(C)c3ccc(O)c(C)c3oc2=O)c1 7.12%
Cc1ccc(OCCOCCn2c(-c3ccc(Cl)cc3)nc3ccccc3c2=O)cc1 -3.48%
COc1ccc2c(c1)CCc1c(C(=O)Nc3ccc(C#N)cc3)noc1-2 27.9%
COC(=O)c1c(C)[nH]c(C)c1C(=O)c1ccccc1Cc1ccccc1 3.34%
COc1cccc(CNC(=O)Cn2nc(N3CCN(c4ccccc4OC)CC3)ccc2=O)c1 7.68%
COc1ccc(-n2c(SCc3ccccc3)nc3c([nH]c4ccccc43)c2=O)cc1 -10.2%
Cc1c(Cl)cccc1NC(=O)C(C)n1c(=O)cc(C)c2c(C)nn(-c3ccccc3)c21 (centres undefined) -10.6%
COc1ccc(C)cc1NC(=O)CN1C(=O)COc2ccc(S(=O)(=O)N3CCC(C)CC3)cc21 -22.5%
CCOc1ccc(-n2c(=O)c3c(C)c(C)sc3n(Cc3ccccc3C)c2=O)cc1 0.0294%
Cc1cn2c(=O)cc(COc3ccc(NC(=O)COc4ccccc4)cc3)nc2s1 2.4%
COc1cc(NC(=O)CN(c2cc(C)cc(C)c2)S(=O)(=O)c2c(C)[nH]c(=O)[nH]c2=O)cc(OC)c1 11.5%
C#CC(C)(CC)NC(=O)Cn1nnc(-c2ccc(OCc3c(F)cccc3Cl)cc2)n1 (centres undefined) -5.59%
O=C(CSc1ncc2c(n1)-c1ccccc1N(Cc1ccc(F)cc1)S2(=O)=O)NCCc1ccccc1 -9.31%
Cc1cc(C)cc(C(=O)n2nc(C)c(S(=O)(=O)N3CCOCC3)c2C)c1 3.79%
Cc1ccc(-n2c(=O)c3ccc(C(=O)NCc4ccccc4Cl)cc3n(CC(=O)Nc3ccc(C)cc3C)c2=O)cc1 -5.81%
CCOC(=O)c1c(NC(=O)c2ccc(F)cc2)sc2c1CCC(CC)C2 (centres undefined) -16.1%
CCOC(=O)c1cccc(NC(=O)[C@H](CSCc2ccccc2)N2Cc3ccccc3C2=O)c1 -6.78%
Cc1ccc(Nc2cc(C)nc3nncn23)c(C)c1 -4.95%
CCOc1ccc(-c2nc3ccccc3c(=O)o2)cc1 31.3%
O=C(C1CCC(Cn2c(=O)c3sccc3n(Cc3ccc(F)cc3)c2=O)CC1)N1CCOCC1 (centres undefined) -5.72%
O=c1[nH]c(C2CCCN(S(=O)(=O)c3ccccc3)C2)nc2c1nnn2Cc1ccc(OC(F)(F)F)cc1 (centres undefined) -1.44%
COc1ccc2c(c1)-c1nc(NC(=O)c3cc(OC)c(OC)c(OC)c3)sc1CC2 -15.5%
CN1C(=O)C2(c3ccccc31)N(c1ccc(Br)cc1)C(=O)CS2(=O)=O (centres undefined) -15.1%
CC(C)CCn1c(SCc2cccc(F)c2)nc2ccsc2c1=O -34.7%
Cc1cc(C)cc(Nc2nc3cc(Cl)c(Cl)cc3nc2-n2nc(C)cc2C)c1 4.77%
Cn1cc(-c2cc3n(n2)CCC(=O)N3CCCC(=O)NCc2ccccc2Cl)c2ccccc21 7.67%
CN1C(=O)c2[nH]nc(-c3ccc(F)cc3)c2C1c1cccc(O)c1 (centres undefined) -4.31%
CCc1ccc2oc(C(=O)NCc3ccccc3)cc(=O)c2c1 22%
COc1cccc(NC(=O)CSc2nc(O)c(C/C=C/c3ccccc3)c(=O)[nH]2)c1 4.58%
COc1ccc(N2CCN(S(=O)(=O)c3ccc(-c4cc(C(F)(F)F)on4)s3)CC2)cc1 -1.72%
Cc1ccc(CCNC(=O)c2sc3ncccc3c2-n2cccc2)cc1 -8.73%
COc1cc(NC(=O)c2nc3cc(C)c(C)cc3n(C)c2=O)cc(OC)c1OC 21.6%

From PubChem BioAssay AID1346428 (National Center for Advancing Translational Sciences (NCATS), 2018)
